Data reported in PubChem BioAssay AID504339 (National Center for Advancing Translational Sciences (NCATS), 2011).
Hit rate of the full screen: of about 390,000 compounds, about 17,000 (4.4%) were called active. The shares of active, inactive and inconclusive entries below differ from those in the screen. Calls follow the shape of the dose curve; as a rule, active = well fitted inhibition curve with a large enough effect; inconclusive = small, poorly fitted or top-dose-only effect; inactive = no such curve, though single readings can be large or run the other way. Potencies beside an inconclusive call are fits to weak or partial responses and may not hold up.

target: Lysine-specific demethylase 4A (Homo sapiens) (UniProt O75164); assay: qHTS Assay for Inhibitors of JMJD2A-Tudor Domain; details: AlphaScreen JMJD2A-Tudor / H3K4me3 peptide binding; activity change, negative = inhibition: at 114 µM (top of the series); also: nearly all actives have a fitted effect of over 50% in size
Sequence of UniProt O75164 (O75164 whole entry, looked up, the tested form may be a part): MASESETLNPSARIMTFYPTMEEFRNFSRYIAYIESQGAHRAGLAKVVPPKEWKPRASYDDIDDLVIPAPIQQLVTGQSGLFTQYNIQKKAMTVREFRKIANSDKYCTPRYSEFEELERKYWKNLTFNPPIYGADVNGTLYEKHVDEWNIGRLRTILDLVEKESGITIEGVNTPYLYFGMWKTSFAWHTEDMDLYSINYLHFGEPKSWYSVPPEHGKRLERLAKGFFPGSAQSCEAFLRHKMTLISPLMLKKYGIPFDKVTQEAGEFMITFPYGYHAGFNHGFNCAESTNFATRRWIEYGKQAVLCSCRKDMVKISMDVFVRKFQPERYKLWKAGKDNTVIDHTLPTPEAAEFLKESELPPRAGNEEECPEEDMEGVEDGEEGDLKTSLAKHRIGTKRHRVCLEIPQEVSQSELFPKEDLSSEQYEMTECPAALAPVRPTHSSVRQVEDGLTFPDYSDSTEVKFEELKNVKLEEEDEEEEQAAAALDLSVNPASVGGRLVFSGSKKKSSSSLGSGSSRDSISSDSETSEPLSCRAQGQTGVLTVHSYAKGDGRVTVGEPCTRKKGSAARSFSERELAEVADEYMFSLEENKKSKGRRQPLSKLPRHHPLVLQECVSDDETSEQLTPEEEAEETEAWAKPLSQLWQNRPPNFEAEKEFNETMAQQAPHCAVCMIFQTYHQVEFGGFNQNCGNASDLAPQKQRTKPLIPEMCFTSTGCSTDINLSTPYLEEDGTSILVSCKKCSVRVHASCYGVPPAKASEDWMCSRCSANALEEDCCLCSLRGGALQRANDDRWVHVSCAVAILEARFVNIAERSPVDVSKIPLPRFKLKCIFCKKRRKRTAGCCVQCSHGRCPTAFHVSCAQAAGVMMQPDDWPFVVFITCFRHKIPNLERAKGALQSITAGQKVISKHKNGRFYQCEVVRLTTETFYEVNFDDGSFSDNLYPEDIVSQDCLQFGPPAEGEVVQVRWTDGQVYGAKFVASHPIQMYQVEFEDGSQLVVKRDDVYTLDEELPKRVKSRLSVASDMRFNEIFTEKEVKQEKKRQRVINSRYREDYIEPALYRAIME
% is scaled to controls: 0 for no effect and ±100 for the full control effect; potency is read from the fitted curve at half-maximal effect; tags tell the direction and shape of the fitted curve.

Potency, inconclusive:
COc1cc(/C=C(\C#N)C(=O)Nc2cccc(C(=O)O)c2)ccc1OCc1ccc(C)cc1 79.4 µM [inhibitor, partial curve]
CSCCC(NS(=O)(=O)c1cccc(C(F)(F)F)c1)C(=O)Nc1ccccc1N1CCCC1 (stereo not given) 56.2 µM [inhibitor, partial curve]
Nc1cccc(-n2nnnc2CN2CCOCC2)c1 12.6 µM [inhibitor, partial curve]
COc1ccc(C2=NS(=O)(=O)N(C)C(C(=O)Nc3cc(OC)c(OC)c(OC)c3)=C2)cc1 56.2 µM [inhibitor, partial curve]
NC(=O)CC(NC(=O)c1ccccc1)c1ccc(N2CCc3ccccc3C2)c([N+](=O)[O-])c1 (stereo not given) 50.1 µM [inhibitor, partial curve]
CCN(CC)S(=O)(=O)c1ccc(C(=O)Oc2coc(CSc3nc(C)cc(C)n3)cc2=O)cc1 39.8 µM [inhibitor, single point]
C=CCn1cn[nH]c1=S 15.8 µM [inhibitor, partial curve, poor fit]
COc1cccc2c1C(=O)c1c(O)c3c(c(O)c1C2=O)C[C@@](O)(C(=O)CO)C[C@@H]3OC1CC(N)C(O)C(C)O1 (stereo not given in full) 28.2 µM [inhibitor, partial curve]
CC(C)c1nc2ccccc2c2nnc(SCC(=O)NCc3ccco3)n12 35.5 µM [inhibitor, full curve]
S=C(NC1CCCCC1)N(CCc1nc2ccccc2[nH]1)C1CCCC1 56.2 µM [inhibitor, partial curve]
Cc1ccc(N=c2c([N+](=O)[O-])nn(-c3ccc(Cl)cc3)n2O)cc1C 44.7 µM [inhibitor, partial curve]
C(=Nc1ccc(Nc2ccccc2)cc1)c1ccc2ccccc2c1 56.2 µM [inhibitor, partial curve]
O=[N+]([O-])/C(C(Cl)=C(Cl)Cl)=C(/NC1CC1)Sc1ccccc1 79.4 µM [inhibitor, single point]
Cc1ccc(SCC(=O)c2ccc(CC(=O)O)s2)cc1 79.4 µM [inhibitor, partial curve]
COc1cccc(Nc2nc(-c3sc(C)nc3C)cs2)c1 63.1 µM [inhibitor, partial curve]
Fc1ccc(CN2CCN3CCCC3C2C2CCCCC2)cc1F (stereo not given) 44.7 µM [inhibitor, partial curve]
CCOc1cc(/C=C2/C(=O)ON=C2C)ccc1OCc1ccccc1F 89.1 µM [inhibitor, single point]
O=C(Nc1nccs1)c1nc(-c2ccccc2)n(-c2ccccc2)n1 89.1 µM [inhibitor, single point]
COc1ccc(OC)c(NC(=S)N(CCc2c(C)[nH]c3ccc(C)cc23)Cc2cccs2)c1 39.8 µM [inhibitor, partial curve]
CCN(CC)c1ccc(NC(=O)COc2ccccc2C#N)cc1S(=O)(=O)Nc1ccccc1OC 56.2 µM [inhibitor, partial curve]
CN(C)NC(=S)NC(=O)C12CC3CC(CC(C3)C1)C2 2.24 µM [inhibitor, full curve, poor fit]
NC[C@@H]1O[C@H](C23CC4CC(CC(C4)C2)C3)Cc2c1ccc(O)c2O 50.1 µM [inhibitor, partial curve]
S=C(Nc1ccc(CN2CCCCC2)cc1)Nc1cccc(Cl)c1Cl 44.7 µM [inhibitor, partial curve]
CCNc1ccc(S(=O)(=O)N(C)C)cc1NCC(=O)Nc1ccccc1Cl 50.1 µM [inhibitor, partial curve]
COCCNC(=O)CCCCCn1c(=S)[nH]c2ccccc2c1=O 25.1 µM [inhibitor, single point]

Potency, active:
COc1ccc(N2CCN(C(=O)C(Cc3ccccc3)n3cccc3)CC2)cc1 (stereo not given) 56.2 µM
COc1ccc(OCC(=O)N/N=C2\CCCCc3ccccc32)cc1 14.1 µM
COc1ccc(C(=O)N/N=C/c2cc3ccccc3[nH]c2=S)cc1 3.16 µM
CC1=NN(c2cc(Cl)c(S(=O)(=O)O)cc2Cl)C(=O)C1 89.1 µM
COc1ccc(-n2nc([N+](=O)[O-])c(=NCCC3=CCCCC3)n2O)cc1 39.8 µM

Activity change, negative = inhibition, inactive:
O=C(COc1ccc(Cl)cc1Cl)NC1CCSC1=O (stereo not given) -6.64%
COc1ccc(Nc2nc(Cl)nc(NCc3ccco3)n2)c(OC)c1 -1.24%
COc1cc(NC(=O)c2cc(Cl)c(OC)c(Cl)c2)ccc1NC(=O)c1cc2ccccc2o1 -18.6%
CCOC(=O)C1=C(CS(=O)(=O)c2ccc(Br)cc2)NC(=O)NC1c1ccccc1 (stereo not given) -17.9%
Cc1n[nH]c(=O)c2c(NC(=O)COC(=O)c3cc(F)cc(F)c3)oc(C)c12 -19%
CCc1nnc(NS(=O)(=O)c2ccc(N/C=C\C(=O)c3ccc(F)cc3)cc2)s1 -15.9%
COc1ccc(CNS(=O)(=O)CCNC(=O)c2ccccc2)cc1 -6.85%
O=C(NC1CCN(C(=S)NCCc2ccccc2)CC1)C1CCCCC1 -10.6%
Oc1c(Cl)cc(Cl)cc1CNc1ccc(Br)cn1 46.4%
COc1ccc(OC)c(NC(=O)c2cc3c(s2)-c2ccccc2SC3)c1 -5.7%
C[C@H](CO)N1C[C@H](C)[C@@H](CN(C)C(=O)Nc2ccccc2)Oc2ccc(NC(=O)c3ccncc3)cc2C1=O -9.09%
COc1ccc(-c2nc(CN3CCC(C(=O)NCCCN4CCN(c5ccccc5F)CC4)CC3)c(C)o2)cc1OC -22.9%
Cc1ccc(SCc2[nH]nc3c2C(c2ccc(C)o2)C(C#N)=C(N)O3)cc1 (stereo not given) -23.7%
CCOc1ccccc1NC(=O)CC1C(=O)NCCN1C(=O)c1ccc(F)cc1 (stereo not given) -7.46%
CN1C=CC=C/C1=C1\SC(=S)N(c2ccccc2)C1=O -34.2%
